This is an account of results in the RNAGym collection of RNA variant scans (doi:10.7554/elife.90254).

Read counts are not given, so values of variants with three or more changes are uncertain.

Sequences and labels used below:
B1: LINE1-full (parent)
chain: UACGUAGGUGGUUUUCCCCUGAUAGUGCUAAGGGGGCCUGGAAGUUUGGACUGGGCAGAGCUCAACACAGCGUGGCAAAGUGGCUGUGGCUAGACUGCCUCUCUGGAUUCCUCGUCACUCAGCAGGGCAUCUCUGAGAGAAAUGCC

In the data set the parent is B1. Put plainly: self-cleavage, relative activity (ratio to wild type); higher = more cleavage; in vitro, sequencing; the parent is a self-cleaving ribozyme.
As to UACGUAGGUGGUUUUCCCCUGGUAGUGCUGAGGGGGCCCGGAAGUUUGGACUGGGCAGAGCUCAACACAGCGUGGCAAAGUGGCUGUGGCUAGACUGCCUCUCUGGAUUCCUCGUCACUCAGCAGGGCAUCUCCGAGAGAAACGCC [A22G A30G U39C U134C U143C], the self-cleavage turned out to be 0.
UACGUAGGUGGUUUUCCCCUGCUAGUGCUAAGGGGGCCCGGAAGUUCGGACUGGGCAGAGCUCAACACAGCGUGGCAAAGUGGCUGUGGCUUGACUGCCUCUCUGGAUUCCUCGUCACUCAGCAGGGCAUCUCUGAGAGAAAUGCC [A22C U39C U47C A92U]: the self-cleavage turned out to be 0.71.
The figure for UACGUAGGUGGUUUUCCCCUGGUAGUGCUAAGGGGGCCUGGAAGUUUGGACUGGGCGGAGCUCAACACAGCGUGGCAAAGUGGCUGUGGCUAGACUGCCUCUCUGGAUUCCUCGUCACUCAGCAGGGCAUCUCAGAGAGAAAUGCC [A22G A57G U134A] is 0.74; for UACGUAGGUGGUUUUCCCCUGGUAGUGCUAAGGGGGCCUGGACGUUUGGACUGGGCAGAGCUCAACACAGAGUGGCAAGGUGGCUGUGGCUAGACUGCCUCUCUGGAUUCCUCGCCACUCAGCAGGGCAUCUCUGAGAGAAAUGCC [A22G A43C C71A A79G U115C] it is 0.17.
Under UACGUAGGUGGUUUUCCCCUGGUAGUGCUAAGGGGGCCUGGGAGUUUGGACUGGGCAGAGCUCAACACUGCGUGGCAAAGUGGCUGUGGCUAGACUGCCUCUCUGGAUUCCUCGUCACUCAGCAGGGCAUCUCUGAGAGAAAAGCC [A22G A42G A69U U143A] stands 0.16.
In the case of UACGUAGGUGGUUUUCCCCUGGUAGUGCUAAGGGGGCCUGGAAGUUUGGACUGGGCGGAGCUCAACACAGCGUGGCAAAGUGGCUGUGGCUAGACUGCCUCUCUGGAUUCCUCGUCACUCAGCAGGGCGUCUCUGAGAGAAAUGCC [A22G A57G A129G], the self-cleavage worked out at 2.3.
Under UACGUAGGUGGUUUUCCCCUGGUAGUGCUAAGGGGGCCUGGAAGUUUGGGCUGGGCAGAGCUCAACACAGCGUGGCGAAGUGGCUGUGGGUAGACUGCCUCUCUGGAUUCCUCGUCACUCAGCAGGGCAUCUCUGAGAGAAGUGCC [A22G A50G A77G C90G A142G] stands 0.09; under UACGUAGGUGGUUUUCCCCUGGUAGUGCUAAGGGGGCCUGGAUGUUUGGACUGGGCAGAGCUCAACACAGCGUGGCAAAGUGGCUGUGGCUAGACUGCCUCUCUGGAUUCCUCGCCACUCAGCAGGGCAUCUCUGAGAGAAAUGCC [A22G A43U U115C], 0.66; under UACGUAGGUGGUUUUCCCCUGCUAGUGCUAAGGGGGCCUGGAAGUUUGGACUGGGCAGAGCCCAACACAGCGUGGCAAAGUGGCUGUGGCUAGACUGCCUCUCUGGAUUCCUCGUCACUCAGCAGGGCAUCUCUGAGAGGAAUGCC [A22C U62C A140G], 0.
The figure for UACGUAGGUGGUUUUCCCCUGGUAGUGCUAUGGGGGCCUGGAAGUUUGGACUGGGCAGAGCUCAACACAGCGUGGCAUGGUGGCCGUGGCUAGACUGCCUCUCUGGAUUCCUCGUCACUCAGCAGGGCAUCUCUGAGAGAAAUGCC [A22G A31U A78U A79G U85C] is 0.37; for UACGUAGGUGGUUUUCCCCUGGUAGUGCUAUGGGGGCCUGGAAGUUUGGACUGGGCAGAGCUCAACACAGCGUGGCAAGGUGGCUGUGGCUAGACUGCCUCUCUGGAUUCCUCGUCACUCAGCGGGGCAUCUCUGAGAGAAAUGCC [A22G A31U A79G A124G] it is 0.4.
The figure for UACGUAGGUGGUUUUCCCCUGGUAGUGCUAAGGGGGCCUGGAAGUUUGGGCUGGGCAGAGCUCAACACAGCGUGGCAAAGUGGCUGUGGCUAGACUGCCUCCCUGGAUUCCUCGUCACUCAGCAGGGCAUCUCUGAGAGAAAUGCC [A22G A50G U102C] is 2.42; for UACGUAGGUGGUUUUCCCCUGGUAGUGCUGAGGGGGCCUGGAAGUUUGGACUGGGCAGAGCUCAACACAGCGUGGCAAAGUGGCGGUGGCUAGACUGCCUCUCUGGAUUCCUCGUCACUCAGCAGGGCAUCUCUGGGAGAAAUGCC [A22G A30G U85G A136G] it is 0.78.
In the case of UACGUAGGUGGUUUUCCCCUGGUAGUGCUAAGGGGGCCUGGAGGUUUGGACUGGGCAGAGCUCAACACAGCGCGGCAAAGGGGCUGUGGCUAGACUGCCUCUCUGGAUUCCUCGUCACUCAGCAGCGCAUCUCUGAGAGAAACGCC [A22G A43G U73C U81G G126C U143C], the self-cleavage amounted to 1.15.
The figure for UACGUAGGUGGUUUUCCCCUGGUUGUGCUAAGGGGGCCUGGAAGUUUGGACUGGGCAGAGCUCAACACAGCGUGGCAAAGUGGCUGUGGAUAGACUGCCUCUCUGGAUUCCUCGUCACUCUGCAGGGCAUCCCUGAGAGAAGUGCC [A22G A24U C90A A121U U132C A142G] is 0.17; for UACGUAGGUGGUUUUCCCCUGCUAGUGCUAAGGGGGCCUGGAAGUUUGGACUGGGCAGAGCACAACACAGCGUGGCAAAGUGGCUGUGGCUAGACCGCCUCUCUGGAUUCCUCGUCACUCAGCAGGGCAACUCUGAGAGAAAUGCC [A22C U62A U96C U130A] it is 0.05; for UACGUAGGUGGUUUUCCCCUGCAAGUGCUAUGGGGGCCUGGAAGUUUGGACUGGGCAGAGCCCAACACAGCGUGGCAAAGUGGCUGUGGCUAGACUGCCUCUCUGGAUUCCUCGUAACUCAGCAGGGCAUCUCUGAGAGGAAUGCC [A22C U23A A31U U62C C116A A140G] it is 0.11.
Turning to UACGUAGGUGGUUUUCCCCUGCUAGUGCUAAGGGGGCCUGGAAGUUUGGACUGGGCAGAGCUCAACACAGCGUGGCAAAGUGGCUGUGGCUAGACUGCCUCUCUGGAUUCCCCGUCACUCAGCAGGGCAUCUCUGAGAGGAAUGCC [A22C U112C A140G], the self-cleavage was determined as 1.57.
Under UACGUAGGUGGUUUUCCCCUGGUAGUGCUGAGGGGGCCUGGAAGUUUGGACUGGGCAAAGCUCAACACAGCGUGGCAAAGUGGCUGUGGCUAGACUGCCUCUCUGGAUUCCUCGUCACUCAGCAGGGCAUCUCGGGGAGAAAUGCC [A22G A30G G58A U134G A136G] stands 0.41; under UACGUAGGUGGUUUUCCCCUGGUAGUGCUAAGGGGGCCUGGACGUUUGGACUGGGCAGAGCUCAACACAGCGUGGCAAAGUGGCUGUGGCAAGACUGCCUCCCUGGAUUCCUCGUCACUCAGCAGGGCAUCUCUGAGAGAAAUGCC [A22G A43C U91A U102C], 0.77; under UACGUAGGUGGUUUUCCCCUGGUAGUGCUAUGGGUGCCUGGAAGUUUGGACUGGGCAGAGCUCAACACAGCGUGGCAUAGUGGCUGAGGCUAGACUGCCUCUCUGGAUUCCUCGUCACUCAGCGGGGCACCUCUGAGAGAAAUGCC [A22G A31U G35U A78U U87A A124G U130C], 0.16.
Under UACGUAGGUGGUUUUCCCCUGGUAGUGCUAAGGGGGCCUGGAGGUUUGGACUGGGCAGAGCUCAACACAGCGUGGCAAAGUGGCUGUGGCUAGACAGCCUCUCUGGAUUCCUCGUCACUCAGCAGGGCAUCUCUGAGAGAAAUGCC [A22G A43G U96A] stands 0.19; under UACGUAGGUGGUUUUCCCCUGGUAGUGCUAAGGGGGCCUGGAAGUUUGGGCUGGGCAGAGCUCAACACAGCGUGGCAAAGUGGCUGUGGCUAGACUGCCUCUCUGGAUUCCUCGUCACUCAGCAGGGCAUCCCUGAGAGAAAUGCC [A22G A50G U132C], 1.08.
Under UACGUAGGUGGUUUUCCCCUGGUAGUGCUGAGGGGGCCUGGAAGUUUGGACUGGGCAGAGCUCAACACAGCGUGGCAAAGUGGCUGUGGCUAGACUGCCUCUCUGGAUUCCUCGUCACUCAGUAGGGCAUCUCUGAGAGAAAUGCC [A22G A30G C123U] stands 0.61.
With UACGUAGGUGGUUUUCCCCUGGUAGUGCUAAGGGGGCCUGGAAGUUUGGGCUGGGCAGAGCUCAACACAGCGUGGCAAAGUGGCUGUGGCUAGACUGCCUCUCUGGAUUCCUCGUCACUAAGCAGGGCAUCUCUGAGAGAAAUGCC [A22G A50G C120A], the self-cleavage was 0.62.
The figure for UACGUAGGUGGUUUUCCCCUGGUAGUGCUAAGGGGGCCUGGGAGUUUGGACUGGGCAGAGCUCAACACAGCGAGGCAAAGUGGCUGUGGCUAGACUGCCUCUCCGGAUUCCUCGUCACUCAGCAGGGCAUCCCUGAGAGAAAUGCC [A22G A42G U73A U104C U132C] is 2.14; for UACGUAGGUGGUUUUCCCCUGGUAGUGCUAAGGGGGCCUGGAUGUUUGGACUGGGCAGAGCUCAACACAGCGUGGCAAAGUGGCUGUGGCUAGACUGCCUCUCUGGAUACCUCGUCACUCAGCAGGGCAUCUCUGAGAGAAAUGCC [A22G A43U U109A] it is 0.61.
Under UACGUAGGUGGUUUUCCCCUGGUGGUGCUAAGGGGGCCUGGAAGUUUGGACUGGGCAGAGCUCAACACAGCGUGGCAAAGUGGCUGUGGCUAGACUGCCUCUUUGGAUUCCUCGGCACUCAGCAGGGCAUCUCUGAGAGAAAUGCC [A22G A24G C103U U115G] stands 1.17; under UACGUAGGUGGUUUUCCCCUGCUAGUGCUAAGGGGGCCUGGAAGUUUGGACUGGGCAGAGCUCAACACAGCGUGGCAAAGUGGCUGUGGCUAGACUGCCUCUCUGGAUUCCUCGUCACUCAGCAGGGCAUCUCCGAGUGAAAUGCC [A22C U134C A138U], 1.76; under UACGUAGGUGGUUUUCCCCUGGUAGUGCUAAGGGGGCCUGGAGGUUUGGACUGGGCAGAGCUCAACACAGCGUGGCAAAGUGGCUGUGGCUAGUCUGCCACUCUGGAUUCCUCGUCACUCAGCAGGGCAUCUCUGAGAGAAAUGCC [A22G A43G A94U U100A], 0.55.
The figure for UACGUAGGUGGUUUUCCCCUGGUAGUGCUAAGGGGGCCUGGAGGUUUGGACUGGGCAGAGCUCAACACAGCGUGGCAAAGUGGCUGUGGCUAGACUGCCUCACUGGAUUCCUCGUCACUCAGCAGGGCAUCUCUGAGAGAAAUGCC [A22G A43G U102A] is 0.78; for UACGUAGGUGGUUUUCCCCUGGUAGUGCUAAGGGGGCCUGGGAGUUUGGACUGGGCAGAGCUCAACACAGCGUGGCAAAGUGGCUGUGGCUAGACUGCCUCUCUGGAUUCCUCGUCACUCAGCAUGGCAUCUCUGAGAGAAAUGCC [A22G A42G G125U] it is 1.09; for UACGUAGGUGGUUUUCCCCUGGUAGUGCUAAGGGGGCCUGGAGGUUUGGACUGGGCAGAGCUCAACACUGCGUGGCAAAGUGGCUGUGGCUAGACUGCCUCUCUGGAUUCCUCGUCACUCAGCAGGGCAUCUCUGAGAGAAAUGCC [A22G A43G A69U] it is 0.06.
Regarding UACGUAGGUGGUUUUCCCCUGGUAGUGCUAAGGGGGCCUGGAAGUUUGGGCUGGGCAGAGCUCAACACAGCGUGGCAAGGUGGCUGUGGCUAGACUGCCUCUCUGGAUUCCUCGUCACUCAGCAGGGCAUCUCUGAGAGAAAUGCC [A22G A50G A79G], the self-cleavage is 0.
Turning to UACGUAGGUGGUUUUCCCCUGGUAGUGCUAAGGGGGCCUGGAGGUUUGGACUGGGCAGAGCUCAACACAGCGUGGCAAAGAGGCUGUGGCUAGACUGCCUCUCUGGAUUCCUCGUCACUCAGCAGGGCAUCUCUGUGAGAAAUGCC [A22G A43G U81A A136U], the self-cleavage came to 1.4.
The figure for UACGUAGGUGGUUUUCCCCUGGUAGUGCUAAGGGGGCCUGGAAGUUUGGGCUGGGCAGAGCUCAACACAGCGUGGCAAAGUGGCUGUGGCUAGACUGCCUCUCUGGAUUCCUCGUCACUCAGCAGGGCAUCUCUGAGAGAGAUGCC [A22G A50G A141G] is 0.77.
Under UACGUAGGUGGUUUUCCCCUGGUGGUGCUAAGGGGGCCUGGAAGUUUGGUCUGGGCAGAGCUCAACACAGCGUGGCAAAGUGGCUGUGGCUAGACUGCCUCUCUGGAUUCCUCGUCACUCAGCAGGGCAUCUCUGAGAGAAAUGCC [A22G A24G A50U] stands 1.97; under UACGUAGGUGGUUUUCCCCUGGUGGUGCUAAGGGGGCCUGGAAGUUUGGACUGGGCAGAGCUCAACACAGCGUGGCAAAGUGGCUGUGGCUAGACUGCCUCUCUGGAUUCCUCGUCACUCAGCAGGGCAUCUCUGAGAGAAAUUCC [A22G A24G G144U], 0.71; under UACGUAGGUGGUUUUCCCCUGGUAGUGCUAAGGGGGCCUGGAAGUUUGGUCUGGGCAGAGCUCAACACAGCGUGGCAAAGUGGCUGUGGCUAGACUGCCUCUCUGGACUCCUCGUCACUCAGCAGGGCAUCUCUGAGAGAAAUGCC [A22G A50U U108C], 2.4.
